# Measurements: PubChem BioAssay AID602293 (National Center for Advancing Translational Sciences (NCATS), 2012)
# Hit rate of the full screen: of about 1,300 compounds, about 30 (2%) were called active. Another 10% or so got no clear call; they are omitted. Calls follow the shape of the dose curve; as a rule, active = well fitted inhibition curve with a large enough effect; inconclusive = small, poorly fitted or top-dose-only effect; inactive = flat fitted curve, though single readings scatter. The list shows a part of the results.
# Assay: qHTS for antagonists of the Thyroid Stimulation Hormone Receptor: Hit Validation in HTRF Activity in a Luteinizing Hormone Receptor Cell Line
# Conditions: LHR-expressing cell line, cAMP HTRF, antagonist mode; series mostly up to 58 µM; activity change, negative = inhibition: at the top concentration
# Summary of the method: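 Counter-screen on LH receptor–transfected HEK 293 cells: 30 min compound exposure at room temperature in medium containing 100 uM RO 20-1724 phosphodiesterase inhibitor. Cellular cAMP read by competitive HTRF after lysis with d2-cAMP and anti-cAMP antibody (330 nm excitation; 615/660 nm emission).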
# % is scaled to controls: 0 for no effect and ±100 for the full control effect.
row,Compound,"activity change, negative = inhibition"
1,O=C1C=C(c2ccc3[nH]ccc3c2)C[C@@H](c2ccc(Cl)cc2)C1,inactive: -2.81%
2,CCOc1ccccc1N1CCN(C(=O)CCCN2C(=O)c3cccc4cccc(c34)C2=O)CC1,inactive: 1.98%
3,Cc1c(C(=O)NCc2ccc3c(c2)OCO3)sc2nc(-c3ccccc3)cn12,inactive: 0.0777%
4,Cc1ccc(-n2nc3c(=O)n(C(C)C(=O)NC4CC4)nc(C)c3c2C)cc1 (stereo unspecified),inactive: 2.26%
5,O=C(Nc1ccc(C(F)(F)F)cc1)c1csc(-c2ccncc2)n1,inactive: -5.69%
6,COc1ccc(NC(=S)N(CCCN2CCOCC2)C(C)c2cc3cccc(OC)c3o2)cc1 (stereo unspecified),inactive: 2.94%
7,COc1cccc(CN(C)C(=O)c2ccc(Oc3ccccc3)cc2)c1OC,inactive: 1.12%
8,O=C(Nc1nccs1)c1ccc(COc2c(F)c(F)cc(F)c2F)o1,inactive: 0.958%
9,COc1ccc(F)cc1CN1CCN(C(=O)CCC(=O)Nc2nnc(CC(C)C)s2)CC1,inactive: 1.03%
10,CCOc1cc(N2CCOCC2)c(OCC)cc1NC(=O)c1cc(S(=O)(=O)N2CCOCC2)ccc1C,inactive: -0.64%
11,Cc1ccc(C)c(S(=O)(=O)N2CCN(C(=O)C3CCN(c4ncnc5sc(C)c(C)c45)CC3)CC2)c1,inactive: -4.34%
12,Cc1ccc(S(=O)(=O)N(CC(=O)NCc2ccccn2)c2ccc(Cl)cc2)cc1,inactive: -0.666%
13,NC(=O)c1cc(S(=O)(=O)NCc2ccc(F)cc2)cs1,inactive: 0.264%
14,NS(=O)(=O)c1ccc(NCc2ccccc2OCc2ccccc2F)cc1,inactive: -2.31%
15,Cc1cccc(C)c1OCCCn1ccnc1,inactive: -0.665%
16,N#Cc1nc(-c2ccccc2)oc1N1CCN(C(=O)c2ccco2)CC1,inactive: -0.0764%
17,CC(C)Cc1csc(NC(=O)c2ccc(Br)cc2)c1C(=O)O,inactive: 0.206%
18,Cn1c2c(c(=O)n(C)c1=O)C(C(F)(F)F)(C(F)(F)F)N=C(c1ccc(Cl)cc1)N2,inactive: -0.364%
19,O=C(Nc1nc(-c2ccccc2)cs1)c1ccccc1NS(=O)(=O)c1ccc(F)cc1,inactive: -4.26%
20,CCOc1cc(S(=O)(=O)n2cnc(C)c2)ccc1Cl,inactive: -0.117%
21,COC(CNC(=O)c1cn(C)c2ccc(S(=O)(=O)N3CCOCC3)cc2c1=O)OC,inactive: -1.26%
22,COc1ccc2ccccc2c1/C=N/NC(=O)c1nnn(-c2nonc2N)c1C(C)C,inactive: -2.14%
23,COC(=O)C1C(=O)NC(SC)=C(C#N)C1c1ccccc1 (stereo unspecified),inactive: 2.08%
24,CCOC(=O)N1CCN(C(=O)c2ccc(NS(=O)(=O)c3ccc(C)cc3)cc2)CC1,inactive: -2.84%
25,CCOc1ccc(-n2c(SCC(=O)Nc3cc(C)on3)nc3c(c2=O)SCC3)cc1,inactive: 1.17%
26,COc1cc(NC(=O)C(C)C)ccc1NC(=O)c1ccco1,inactive: -1.72%

row,Compound,"activity change, negative = inhibition"
1,COc1cccc(/C=N/NC(=O)C(=O)N2CCCC2)c1O,inactive: 2.1%
2,Cc1onc(-c2ccccc2Cl)c1C(=O)NC(=S)Nc1ccc(C(C)C)cc1,inactive: -0.899%
3,O=S(=O)(C/C(=C/CO)S(=O)(=O)c1ccccc1)c1ccccc1,inactive: -0.386%
4,O=C(Nc1cccc(Cl)c1)Nc1ccc(Br)cc1F,inactive: -5.11%
5,C(=N\Nc1nc2ccccc2[nH]1)/c1ccncc1,inactive: 1.9%
6,O=C1C=C(c2ccc(Cl)c(C(F)(F)F)c2)C[C@@H](c2ccc(F)cc2)C1,inactive: -3.14%
7,c1ccc2c(CSc3ncnc4nc[nH]c34)cccc2c1,inactive: 1.84%
8,O=C(COC(=O)c1cc(S(=O)(=O)N2CCOCC2)c(Cl)cc1Cl)c1ccc[nH]1,inactive: -1.62%
9,COc1ccc(-n2nc(C(=O)NCC(=O)NCCCN3CCN(C)CC3)c3ccccc3c2=O)cc1,inactive: 2.91%
10,COc1ccc(-c2nnc(CSc3nc4ccccc4c(=O)n3CC3CCCO3)o2)cc1OC (stereo unspecified),inactive: 2.69%
11,COc1ccc(-c2ccc(SCc3ccccn3)nn2)cc1OC,inactive: 2.61%
12,Cc1sc2ncnc(N3CCN(CCOc4ccc(Cl)cc4)CC3)c2c1C,inactive: -1.63%
13,CCOC(=O)C1CCCN(S(=O)(=O)c2cnc(Cl)c(Br)c2)C1 (stereo unspecified),inactive: -0.394%
14,O=[N+]([O-])c1ccc(N2CCN(C(=S)NCc3ccc(Cl)cc3)CC2)cc1,inactive: -0.0341%
15,O=c1[nH]c(=O)c2nnc(N/N=C/c3ccccc3F)nc2[nH]1,inactive: 1.97%
16,Cc1ccc(S(=O)(=O)/N=C2\C=C(Nc3cccc(C(=O)O)c3)C(=O)c3ccccc32)cc1,inactive: 1.18%
17,COc1cc(NS(=O)(=O)c2ccc(C)cc2C)cc(OC)c1OC,inactive: -3.91%
18,O=C(Nc1ccc(N=Nc2ccccc2)cc1)c1ccccc1Cl,inactive: -3.28%
19,O=C(/C=C/c1ccco1)Nc1ccc(Oc2ccc(Cl)cc2)cc1,inactive: -4.15%
20,CS(=O)(=O)N(CC(=O)N1CCOCC1)c1cccc(F)c1,inactive: 0.399%
21,O=C(NCc1cccnc1)c1nc(-c2ccccc2)n(-c2ccccc2)n1,inactive: 0.968%
22,COc1ccc(CN(C)C(=O)COC(=O)c2ccc(-c3ccccc3)cc2)c(OC)c1OC,inactive: -1.51%
23,CS(=O)(=O)c1ccc(C(=O)OCC(=O)NC(=O)C2CCCCC2)cc1[N+](=O)[O-],inactive: -0.0335%
24,COc1ccc(NS(=O)(=O)c2ccc(N/N=C(\C)c3ccncc3)c([N+](=O)[O-])c2)cc1,inactive: -6.17%
25,CCOc1ccnc2c1c(=O)n(Cc1cc(OC)cc(OC)c1)c(=O)n2C,inactive: 0.92%
